PubChem BioAssay (NCI)
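48-hour exposure; five concentrations; linearly interpolated endpoints. TGI: total growth inhibition.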

Assays:
Assay in all cases: DTP human tumour cell line panel, 48 h
786-0 renal = system: 786-0 renal
A498 renal = system: A498 renal
A549 NSCLC = system: A549 NSCLC
ACHN renal = system: ACHN renal
CAKI-1 renal = system: CAKI-1 renal
CCRF-CEM leukemia = system: CCRF-CEM leukemia
COLO 205 colon = system: COLO 205 colon
DU-145 prostate = system: DU-145 prostate
HCC-2998 colon = system: HCC-2998 colon
HCT-116 colon = system: HCT-116 colon
HCT-15 colon = system: HCT-15 colon
HL-60(TB) leukemia = system: HL-60(TB) leukemia
HOP-62 NSCLC = system: HOP-62 NSCLC
HOP-92 NSCLC = system: HOP-92 NSCLC
HS 578T breast = system: HS 578T breast
K-562 leukemia = system: K-562 leukemia
KM12 colon = system: KM12 colon
LOX IMVI melanoma = system: LOX IMVI melanoma
M14 melanoma = system: M14 melanoma
MCF7 breast = system: MCF7 breast
MDA-MB-231 breast = system: MDA-MB-231 breast
MDA-MB-435 = system: MDA-MB-435
MOLT-4 leukemia = system: MOLT-4 leukemia
NCI-H23 lung = system: NCI-H23 lung
NCI-H460 lung = system: NCI-H460 lung
NCI/ADR-RES ovarian = system: NCI/ADR-RES ovarian
OVCAR-3 ovarian = system: OVCAR-3 ovarian
OVCAR-4 ovarian = system: OVCAR-4 ovarian
OVCAR-5 ovarian = system: OVCAR-5 ovarian
PC-3 prostate = system: PC-3 prostate
RPMI-8226 leukemia = system: RPMI-8226 leukemia
RXF 393 renal = system: RXF 393 renal
SF-268 CNS = system: SF-268 CNS
SF-295 CNS = system: SF-295 CNS
SF-539 CNS = system: SF-539 CNS
SK-MEL-2 melanoma = system: SK-MEL-2 melanoma
SK-MEL-28 melanoma = system: SK-MEL-28 melanoma
SK-MEL-5 melanoma = system: SK-MEL-5 melanoma
SK-OV-3 ovarian = system: SK-OV-3 ovarian
SNB-75 CNS = system: SNB-75 CNS
SR leukemia = system: SR leukemia
SW-620 colon = system: SW-620 colon
T-47D breast = system: T-47D breast
TK-10 renal = system: TK-10 renal
U251 CNS = system: U251 CNS
UACC-62 melanoma = system: UACC-62 melanoma
UO-31 renal = system: UO-31 renal

Question: For `O=C1Cc2c([nH]c3ccc(C(F)(F)F)cc23)-c2ccccc2N1`, which TGI (786-0 renal) is on record?
Answer: > 100 µM

Question: And the TGI (A498 renal)?
Answer: > 100 µM

Question: What about the TGI (A549 NSCLC) of the same compound?
Answer: 95.5 µM

Question: What about the TGI (ACHN renal) of the same compound?
Answer: > 100 µM

Question: What about the TGI (CAKI-1 renal) of the same compound?
Answer: > 100 µM

Question: What about the TGI (CCRF-CEM leukemia) of the same compound?
Answer: > 100 µM

Question: And the TGI (COLO 205 colon)?
Answer: > 100 µM

Question: What about the TGI (DU-145 prostate) of the same compound?
Answer: > 100 µM

Question: And the TGI (HCC-2998 colon)?
Answer: > 100 µM

Question: And the TGI (HCT-116 colon)?
Answer: > 100 µM

Question: What about the TGI (HCT-15 colon) of the same compound?
Answer: > 100 µM

Question: What about the TGI (HL-60(TB) leukemia) of the same compound?
Answer: > 100 µM

Question: What about the TGI (HOP-62 NSCLC) of the same compound?
Answer: > 100 µM

Question: What about the TGI (HOP-92 NSCLC) of the same compound?
Answer: > 100 µM

Question: And the TGI (HS 578T breast)?
Answer: > 100 µM

Question: And the TGI (K-562 leukemia)?
Answer: > 100 µM

Question: And the TGI (KM12 colon)?
Answer: > 100 µM

Question: And the TGI (LOX IMVI melanoma)?
Answer: > 100 µM

Question: What about the TGI (M14 melanoma) of the same compound?
Answer: > 100 µM

Question: What about the TGI (MCF7 breast) of the same compound?
Answer: > 100 µM

Question: What about the TGI (MDA-MB-231 breast) of the same compound?
Answer: > 100 µM

Question: What about the TGI (MDA-MB-435) of the same compound?
Answer: > 100 µM

Question: And the TGI (MOLT-4 leukemia)?
Answer: > 100 µM

Question: What about the TGI (NCI-H23 lung) of the same compound?
Answer: > 100 µM

Question: What about the TGI (NCI-H460 lung) of the same compound?
Answer: > 100 µM

Question: What about the TGI (NCI/ADR-RES ovarian) of the same compound?
Answer: > 100 µM

Question: And the TGI (OVCAR-3 ovarian)?
Answer: > 100 µM

Question: And the TGI (OVCAR-4 ovarian)?
Answer: > 100 µM

Question: What about the TGI (OVCAR-5 ovarian) of the same compound?
Answer: > 100 µM

Question: And the TGI (PC-3 prostate)?
Answer: > 100 µM

Question: And the TGI (RPMI-8226 leukemia)?
Answer: > 100 µM

Question: And the TGI (RXF 393 renal)?
Answer: > 100 µM

Question: And the TGI (SF-268 CNS)?
Answer: > 100 µM

Question: What about the TGI (SF-295 CNS) of the same compound?
Answer: > 100 µM

Question: And the TGI (SF-539 CNS)?
Answer: > 100 µM

Question: What about the TGI (SK-MEL-2 melanoma) of the same compound?
Answer: > 100 µM

Question: And the TGI (SK-MEL-28 melanoma)?
Answer: > 100 µM

Question: And the TGI (SK-MEL-5 melanoma)?
Answer: > 100 µM

Question: What about the TGI (SK-OV-3 ovarian) of the same compound?
Answer: > 100 µM

Question: And the TGI (SNB-75 CNS)?
Answer: > 100 µM

Question: What about the TGI (SR leukemia) of the same compound?
Answer: > 100 µM

Question: What about the TGI (SW-620 colon) of the same compound?
Answer: > 100 µM

Question: What about the TGI (T-47D breast) of the same compound?
Answer: > 100 µM

Question: What about the TGI (TK-10 renal) of the same compound?
Answer: > 100 µM

Question: And the TGI (U251 CNS)?
Answer: > 100 µM

Question: What about the TGI (UACC-62 melanoma) of the same compound?
Answer: > 100 µM

Question: What about the TGI (UO-31 renal) of the same compound?
Answer: > 100 µM
